Results: PubChem BioAssay AID1645882 (National Center for Advancing Translational Sciences (NCATS), 2021)
Hit rate of the full screen: of about 16,000 compounds, about 120 (0.75%) were called active. Another 4% or so got no clear call; they are omitted. Calls follow the shape of the dose curve; as a rule, active = well fitted inhibition curve with a large enough effect; inconclusive = small, poorly fitted or top-dose-only effect; inactive = no such curve, though single readings can be large or run the other way. The list shows a part of the results. Where a SMILES comes first, the peptide text is derived from it.

The compounds below were run against Rap guanine nucleotide exchange factor 3 (Homo sapiens) (UniProt O95398) (assay: Validation qHTS for antagonist of cAMP-regulated guanine nucleotide exchange factor 3 (EPAC1)). Conditions: EPAC1 Rap1B-BODIPY-GDP exchange, fluorescence; series mostly up to 150 µM; activity change, negative = inhibition: at the top concentration.
UniProt O95398, sequence (O95398 whole entry, looked up): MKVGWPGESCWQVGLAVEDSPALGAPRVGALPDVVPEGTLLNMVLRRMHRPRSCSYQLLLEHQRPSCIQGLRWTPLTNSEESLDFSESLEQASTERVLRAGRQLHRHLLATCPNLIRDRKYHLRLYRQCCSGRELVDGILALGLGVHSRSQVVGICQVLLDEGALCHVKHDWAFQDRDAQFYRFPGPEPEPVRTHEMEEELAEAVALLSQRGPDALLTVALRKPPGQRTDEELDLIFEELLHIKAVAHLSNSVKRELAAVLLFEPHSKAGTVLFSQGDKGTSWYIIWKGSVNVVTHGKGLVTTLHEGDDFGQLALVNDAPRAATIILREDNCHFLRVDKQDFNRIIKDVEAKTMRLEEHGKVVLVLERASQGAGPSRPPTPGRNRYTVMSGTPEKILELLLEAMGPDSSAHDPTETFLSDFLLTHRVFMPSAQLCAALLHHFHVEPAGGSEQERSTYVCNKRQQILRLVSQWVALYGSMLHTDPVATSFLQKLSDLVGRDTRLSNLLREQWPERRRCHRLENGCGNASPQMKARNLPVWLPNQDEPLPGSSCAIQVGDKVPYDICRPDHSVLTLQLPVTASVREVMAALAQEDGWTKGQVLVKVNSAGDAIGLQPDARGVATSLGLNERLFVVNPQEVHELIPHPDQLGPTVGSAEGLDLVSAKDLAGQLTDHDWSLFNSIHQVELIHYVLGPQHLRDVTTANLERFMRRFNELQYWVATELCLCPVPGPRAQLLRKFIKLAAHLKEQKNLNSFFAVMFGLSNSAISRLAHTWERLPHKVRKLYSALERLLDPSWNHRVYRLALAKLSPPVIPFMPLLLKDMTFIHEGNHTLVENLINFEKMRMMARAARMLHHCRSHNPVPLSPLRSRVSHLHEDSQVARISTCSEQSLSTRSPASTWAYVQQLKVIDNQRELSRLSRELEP
Procedure, shortened: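 Nucleotide exchange followed as fluorescence loss when BODIPY-GDP leaves Rap1B (480 nm excitation, 540 nm emission), read at 5 min intervals over 30 min. Reaction: 100 nM EPAC1, 250 nM RAP1B-BODIPY-GDP, 50 uM GDP; ATA and DMSO define normalization.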
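Also: plate controls were DMSO for no effect and ATA control for full effect; nearly all actives have a fitted effect of over 75% in size.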

| Compound | activity change, negative = inhibition |
| --- | --- |
| CCC1C2CC3C4N(C)c5ccccc5[C@]45CC(C2C5O)N3C1O (stereo partly specified) | inactive: 9.23% |
| CCCN1CCc2cc(O)cc3c2[C@H]1Cc1ccc(O)c(O)c1-3 | inactive: -11% [at 75.8 µM] |
| OC[C@@H](O)[C@H]1O[C@@H]2O[C@H](C(Cl)(Cl)Cl)O[C@@H]2[C@H]1O | inactive: 13.5% |
| O=C(O)CCC1NCC2CC1CN1CCCCC21 (stereo unspecified) | inactive: 0.0753% |
| COc1cc(CCN)ccc1O | inactive: 11% |
| O=C(Oc1ccccc1)N1CCC2(CCN(Cc3nccs3)CC2)CC1 | inactive: 25.1% |
| C#CCN[C@H](C)Cc1ccccc1 | inactive: -1.49% [at 75.8 µM] |
| CCCN(CCC)[C@@H]1CCc2cccc(O)c2C1 | inactive |
| C[C@]12CC[C@H]3[C@@H](CCC4=CC(=O)CC[C@@]43C)[C@@H]1CC[C@H]2O | inactive: -3.2% |
| NCc1cc(=O)[nH]o1 | inactive |
| C[C@H]1CCC/C=C/C2C[C@H](O)C[C@H]2[C@H](O)/C=C/C(=O)O1 (stereo partly specified) | inactive: 22.6% [at 201 µM] |
| CN1C(=O)NC(=O)C(C)(C2=CCCCC2)C1=O (stereo unspecified) | inactive |
| CC(C)CN1CC2(CCN(C(=O)Oc3ccccc3)CC2)C1 | inactive: 6.58% |
| CCN1C[C@@]2(COC)C3[C@@H](OC)C4[C@@H]1[C@@]3(C1C[C@@]3(O)[C@H](OC(=O)c5ccccc5)C1[C@]4(OC(C)=O)[C@@H](O)[C@@H]3OC)[C@@H](OC)C[C@H]2O (stereo partly specified) | inactive: -10.5% |
| COC(=O)C(c1ccccc1)C1CCCCN1 (stereo unspecified) | inactive: 7.71% |
| COC(=O)c1cncn1C(C)c1ccccc1 (stereo unspecified) | inactive: 16.2% |
| ClC=C(Cl)Cl | inactive: 11.5% |
| C[C@H]1C(=O)O[C@@H]2CCN3CC=C(COC(=O)[C@](C)(O)[C@]1(C)O)[C@H]23 | inactive: 7.09% |
| CCCN1C[C@H](C)N([C@H](c2ccc(C(=O)N(CC)CC)cc2)c2cccc(OC)c2)C[C@H]1C | inactive |
| Clc1ccc([C@@H]2C[C@H]3CC[C@@H]2N3)cn1 | inactive |
| O=C(O)COc1cc(Cl)c(Cl)cc1Cl | inactive: 3.94% |
| O=[N+]([O-])/N=C1\NCCN1Cc1ccc(Cl)nc1 | inactive |

| Compound | activity change, negative = inhibition |
| --- | --- |
| CC(=O)OCC1=C(C(=O)O)N2C(=O)[C@@H](N)[C@H]2SC1 | inactive: 12.5% [at 75.8 µM] |
| CCC1C(=O)OCC1Cc1cncn1C (stereo unspecified) | inactive |
| CC(C)C[C@H](CN)CC(=O)O | inactive: 13.7% |
| COc1cc2c(cc1OC)[C@@H]1C(=O)c3ccc4oc(C(C)C)cc4c3OC1CO2 (stereo partly specified) | inactive: 3.72% |
| CN(C)C(=S)SSC(=S)N(C)C | inactive |
| C[C@H](NC(=O)[C@@H](N)Cc1ccc(O)cc1)C(=O)N[C@@H](Cc1ccccc1)C(=O)N[C@@H](Cc1ccccc1)C(N)=O (H-YAFF-NH2) | inactive: 6.98% [at 15.3 µM] |
| CC1CC[C@@]2(NC1)O[C@@H]1C[C@H]3C4CC=C5C[C@@H](O)CC[C@]5(C)C4CC[C@]3(C)[C@H]1[C@@H]2C (stereo partly specified) | inactive: 13.2% |
| CC(C)(C)NCC(O)c1ccccc1Cl (stereo unspecified) | inactive |
| CC1(C(=O)O)C2CCC(O2)C1(C)C(=O)O (stereo unspecified) | inactive: -6.05% [at 75.8 µM] |
| Oc1ccc([C@H]2CNCc3c2ccc(O)c3O)cc1O | inactive: -17.1% |
| CCCN(CCC)[C@@H]1CCc2c(OC)cccc2[C@@H]1C | inactive: 7.71% |
| CN1[C@@H]2CC[C@H]1CC(OC1c3ccccc3CCc3ccccc31)C2 (stereo partly specified) | inactive: 4.92% [at 75.8 µM] |
| O=C1CCC[C@H]2[C@H]3CCCN4CCCC(=CN12)[C@@H]34 | inactive: -2.42% |
| COc1cc2c(c(OC)c1OC)-c1ccc(O)c(=O)cc1[C@@H](NC(C)=O)CC2 | inactive: 18.2% |
| O=C1CCCC2[C@@H]3CCCN4CCC[C@@H](CN12)C34 (stereo partly specified) | inactive: 7.89% |
| CC(C)C1C(=O)N2CCC[C@H]2[C@]2(O)O[C@](NC(=O)[C@@H]3C=C4c5cccc6[nH]cc(c56)C[C@H]4N(C)C3)(C(C)C)C(=O)N12 (stereo partly specified) | inactive: 37.4% |
| CN1CCCC(=C(c2cccs2)c2cccs2)C1 | inactive: 11.5% |
| C#C[C@]1(O)C=C[C@H]2[C@@H]3CCC4=CC(=O)CC[C@@H]4[C@H]3CC[C@@]21CC | inactive: 18.5% |
| Cc1nnc2ccc(-c3cccc(C(F)(F)F)c3)nn12 | inactive: -1.15% |
| COc1cc2c(cc1-c1cc3cc4ccoc4cc3oc1=O)OCO2 | inactive: -0.936% |
| CCCC[C@@H](C)[C@@H](OC(=O)C[C@@H](CC(=O)O)C(=O)O)[C@H](C[C@@H](C)C[C@H](O)CCCC[C@@H](O)C[C@H](O)[C@H](C)N)OC(=O)C[C@H](CC(=O)O)C(=O)O | inactive: 8.81% |
| COC(=O)[C@H]1[C@@H](OC(=O)c2ccccc2)C[C@@H]2CC[C@H]1N2C | inactive: 28% [at 320 µM] |

| Compound | activity change, negative = inhibition |
| --- | --- |
| CCC1C(=O)OC[C@H]1Cc1cncn1C (stereo partly specified) | inactive: 11.8% |
| CCN(CC)C(=O)[C@@H]1C=C2c3cccc4[nH]cc(c34)C[C@H]2N(C)C1 | inactive |
| CCNC1(c2cccs2)CCCCC1=O (stereo unspecified) | inactive: 9.09% [at 75.8 µM] |
| CC(C)C[C@H](NC(=O)[C@H](Cc1ccccc1)NC(=O)CNC(=O)[C@@H](NC(=O)[C@@H](N)Cc1ccc(O)cc1)[C@H](C)O)C(=O)N[C@H](C(=O)O)[C@H](C)O | inactive: 28% [at 15.3 µM] |
| CCNC(C)Cc1cccc(C(F)(F)F)c1 (stereo unspecified) | inactive: 19.1% |
| C1CCC(NC2CCCCC2)CC1 | inactive: 15.3% |
| COc1ccc(C(=O)CN2CCOCC2)cc1 | inactive: 12.2% |
| CCC1(c2cccc(O)c2)CCCCN(C)C1 (stereo unspecified) | inactive: 7.27% [at 75.8 µM] |
| CC(C)[C@]1(O)[C@@H](OC(=O)c2ccc[nH]2)[C@@]2(O)[C@@]3(C)C[C@]4(O)O[C@@]5([C@H](O)[C@@H](C)CC[C@]35O)[C@@]2(O)C41C | inactive: 30.4% |
| C[C@H](N)Cc1c[nH]c2ccc(OCc3cccs3)cc12 | inactive: 7.14% |
| CC(=O)OCC1=C(C(=O)O)N2C(=O)C(NC(=O)CCCC(N)C(=O)O)C2SC1 (stereo unspecified) | inactive: -28.3% |
| C[C@@H]1CC[C@H]2[C@@H](C)C(=O)O[C@@H]3O[C@@]4(C)CC[C@@H]1[C@]32OO4 | inactive: 5.39% |
| CC(=O)C1=C(O)[C@@H]2[C@@H]3c4c[nH]c5cccc(c45)C[C@@H]3C(C)(C)N2C1=O | inactive: -21.5% |
| CS(=N)(=O)CC[C@H](N)C(=O)O (stereo partly specified) | inactive: -3.53% [at 75.8 µM] |
| NC(=NCCc1ccc(I)cc1)SCCCc1cnc[nH]1 | inactive |
| CC(C)(C)C(=O)C(Oc1ccc(Cl)cc1)n1cncn1 (stereo unspecified) | inactive: 13.5% |
| CC(=O)OO | inactive: 10.8% |
| CN(C)[C@H](Cc1ccccc1)c1ccccc1 | inactive: 19.2% |
| COc1ccc(CNC(=O)/C=C\c2ccc3[nH]cc(CCN(C)C)c3c2)cc1 | inactive: -4.78% |
| CNC(C)C(O)c1ccccc1 (stereo unspecified) | inactive: 20.8% |
| CC(C)Oc1cccc(NC(=O)c2ccccc2C(F)(F)F)c1 | inactive: -28% [at 320 µM] |
| CN1CC[C@@]23CCCC[C@@H]2[C@@H]1Cc1ccc(O)cc13 | inactive: -2.1% |
